{"source": "the supplement of paper PMC10126150", "note": "Sequences with one replicate were seen in a single cluster, so their values are uncertain.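 Note: ATP exposure 15 min at 22 °C before imaging.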"}
{"test_system": "ATP", "experiment": "switch fluorescence ratio, 500 uM ATP over buffer (Cy3 cluster intensity, sum of 5 cycles each) (fold (ratio)); higher = stronger signal-on switching upon ATP binding; sequences stand for … in TCGTCGGCAGCGTCAGATGTGTATAAGAGACAGTTTTTTTTTTTTTTTTTTTTTTTTT…TC", "details": "aptamer strand: ATP DNA aptamer (quencher-CACCTGGGGGAGTATTGCGGAGGAAGG + anchor), 100 nM annealed; ATP concentration: 500 uM; one replicate", "in_short": "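Cy3-labelled switching-strand clusters on a modified Illumina MiSeq flow-cell were annealed to 100 nM quencher-labelled ATP aptamer and imaged first in selection buffer, then after 15 min with 500 uM ATP at 22 °C. NaOH stripping and re-annealing separated each of five buffer/ATP cycles, and clusters outside 100-1000 RFU were excluded. The fluorescence ratio sums target-cycle Cy3 intensity over buffer-cycle Cy3 intensity per cluster and averages it per switch-domain sequence.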"}
{"sequence": "GCTTCGGGCG", "switch fluorescence ratio": 0.978}
{"sequence": "GCTTGACAGC", "switch fluorescence ratio": 1}
{"sequence": "GCTTGACCTG", "switch fluorescence ratio": 1.01}
{"sequence": "GCTTGGGATG", "switch fluorescence ratio": 1.02}
{"sequence": "GCTTGGTTAT", "switch fluorescence ratio": 1.03}
{"sequence": "GCTTGGTTGA", "switch fluorescence ratio": 0.993}
{"sequence": "GCTTGTGTGC", "switch fluorescence ratio": 1.01}
{"sequence": "GCTTGTTCAG", "switch fluorescence ratio": 0.965}
{"sequence": "GCTTTACTCG", "switch fluorescence ratio": 1.3}
{"sequence": "GCTTTATATT", "switch fluorescence ratio": 1.06}
{"sequence": "GCTTTCAACG", "switch fluorescence ratio": 1.06}
{"sequence": "GCTTTGGGAG", "switch fluorescence ratio": 1.03}
{"sequence": "GCTTTGGTGT", "switch fluorescence ratio": 0.983}
{"sequence": "GGAAAAAGAG", "switch fluorescence ratio": 1.03}
{"sequence": "GGAAAAGCAA", "switch fluorescence ratio": 1.23}
{"sequence": "GGAAAATAT", "switch fluorescence ratio": 0.983}
{"sequence": "GGAAAATGCC", "switch fluorescence ratio": 1.08}
{"sequence": "GGAAACACTC", "switch fluorescence ratio": 1.03}
{"sequence": "GGAAACATCT", "switch fluorescence ratio": 0.984}
{"sequence": "GGAAACCACT", "switch fluorescence ratio": 1.03}
{"sequence": "GGAAACTGAG", "switch fluorescence ratio": 1.12}
{"sequence": "GGAAAGCCGG", "switch fluorescence ratio": 0.993}
{"sequence": "GGAAAGGAAT", "switch fluorescence ratio": 0.98}
{"sequence": "GGAAATCAAT", "switch fluorescence ratio": 0.966}
{"sequence": "GGAACGGGAC", "switch fluorescence ratio": 1.14}
{"sequence": "GGAACTACGG", "switch fluorescence ratio": 1.04}
{"sequence": "GGAACTATAT", "switch fluorescence ratio": 0.977}
{"sequence": "GGAACTTATT", "switch fluorescence ratio": 1}
{"sequence": "GGAAGAGGCG", "switch fluorescence ratio": 0.932}
{"sequence": "GGAAGCAGTT", "switch fluorescence ratio": 0.993}
{"sequence": "GGAAGCCATA", "switch fluorescence ratio": 1.03}
{"sequence": "GGAAGCCATG", "switch fluorescence ratio": 1.02}
{"sequence": "GGAAGCGGCT", "switch fluorescence ratio": 1.05}
{"sequence": "GGAAGCGTGT", "switch fluorescence ratio": 0.96}
{"sequence": "GGAAGGAATT", "switch fluorescence ratio": 1.02}
{"sequence": "GGAAGGATGA", "switch fluorescence ratio": 0.965}
{"sequence": "GGAAGTTGCG", "switch fluorescence ratio": 1}
{"sequence": "GGAATATACA", "switch fluorescence ratio": 1.03}
{"sequence": "GGAATGGGCC", "switch fluorescence ratio": 0.962}
{"sequence": "GGAATGTGAG", "switch fluorescence ratio": 0.994}
{"sequence": "GGAATTGCAG", "switch fluorescence ratio": 0.982}
{"sequence": "GGAATTGGGA", "switch fluorescence ratio": 0.93}
{"sequence": "GGACAAAGTG", "switch fluorescence ratio": 0.996}
{"sequence": "GGACCAGGAA", "switch fluorescence ratio": 1}
{"sequence": "GGACCCAGAA", "switch fluorescence ratio": 1.02}
{"sequence": "GGACCTACCG", "switch fluorescence ratio": 1.1}
{"sequence": "GGACGAAAG", "switch fluorescence ratio": 0.96}
{"sequence": "GGACGAAGT", "switch fluorescence ratio": 1.04}
{"sequence": "GGACGAAGTA", "switch fluorescence ratio": 0.995}
{"sequence": "GGACGGAGG", "switch fluorescence ratio": 0.958}
{"sequence": "GGACTATGTA", "switch fluorescence ratio": 1.02}
{"sequence": "GGACTGGTTT", "switch fluorescence ratio": 0.964}
{"sequence": "GGACTTAGCT", "switch fluorescence ratio": 0.974}
{"sequence": "GGAGAAAAT", "switch fluorescence ratio": 0.966}
{"sequence": "GGAGAAAATT", "switch fluorescence ratio": 0.98}
{"sequence": "GGAGAACAGG", "switch fluorescence ratio": 1.05}
{"sequence": "GGAGAACGAA", "switch fluorescence ratio": 0.951}
{"sequence": "GGAGAGACGC", "switch fluorescence ratio": 0.966}
{"sequence": "GGAGAGACGT", "switch fluorescence ratio": 1}
{"sequence": "GGAGAGATCG", "switch fluorescence ratio": 0.937}
{"sequence": "GGAGAGCCTA", "switch fluorescence ratio": 1.04}
{"sequence": "GGAGAGGCAT", "switch fluorescence ratio": 1.01}
{"sequence": "GGAGAGTCAG", "switch fluorescence ratio": 1.02}
{"sequence": "GGAGATGGGT", "switch fluorescence ratio": 0.997}
{"sequence": "GGAGCACG", "switch fluorescence ratio": 1.11}
{"sequence": "GGAGCACGCC", "switch fluorescence ratio": 1.12}
{"sequence": "GGAGCCCCTT", "switch fluorescence ratio": 1.09}
{"sequence": "GGAGCCCGTG", "switch fluorescence ratio": 0.954}
{"sequence": "GGAGCGCGA", "switch fluorescence ratio": 1.07}
{"sequence": "GGAGCTGTAT", "switch fluorescence ratio": 1.08}
{"sequence": "GGAGGCACCG", "switch fluorescence ratio": 1.03}
{"sequence": "GGAGGCCCTT", "switch fluorescence ratio": 1}
{"sequence": "GGAGGGATGC", "switch fluorescence ratio": 1.25}
{"sequence": "GGAGGGGG", "switch fluorescence ratio": 1.07}
{"sequence": "GGAGGGGTAG", "switch fluorescence ratio": 1.06}
{"sequence": "GGAGGTACAA", "switch fluorescence ratio": 1.03}
{"sequence": "GGAGGTCGTA", "switch fluorescence ratio": 1.06}
{"sequence": "GGAGGTGAGT", "switch fluorescence ratio": 1.04}
{"sequence": "GGAGGTTGC", "switch fluorescence ratio": 0.962}
{"sequence": "GGAGTACGGA", "switch fluorescence ratio": 1.04}
{"sequence": "GGAGTAGCCT", "switch fluorescence ratio": 1.03}
{"sequence": "GGAGTGATG", "switch fluorescence ratio": 1.05}
{"sequence": "GGAGTGGATT", "switch fluorescence ratio": 0.993}
{"sequence": "GGAGTTCAGC", "switch fluorescence ratio": 0.956}
{"sequence": "GGAGTTCTTG", "switch fluorescence ratio": 0.987}
{"sequence": "GGAGTTGA", "switch fluorescence ratio": 1.02}
{"sequence": "GGATAAGAAA", "switch fluorescence ratio": 0.964}
{"sequence": "GGATAATCTC", "switch fluorescence ratio": 0.999}
{"sequence": "GGATACTCGA", "switch fluorescence ratio": 1.01}
{"sequence": "GGATAGTCGC", "switch fluorescence ratio": 0.958}
{"sequence": "GGATATTATT", "switch fluorescence ratio": 0.978}
{"sequence": "GGATCCACCG", "switch fluorescence ratio": 1.07}
{"sequence": "GGATCCGAGG", "switch fluorescence ratio": 1.05}
{"sequence": "GGATCCGTTT", "switch fluorescence ratio": 1}
{"sequence": "GGATCGAAAT", "switch fluorescence ratio": 0.98}
{"sequence": "GGATCGAACT", "switch fluorescence ratio": 1.01}
{"sequence": "GGATCGAATT", "switch fluorescence ratio": 0.994}
{"sequence": "GGATCGGACA", "switch fluorescence ratio": 0.963}
{"sequence": "GGATCTGAAA", "switch fluorescence ratio": 1.03}
{"sequence": "GGATCTGTTA", "switch fluorescence ratio": 0.962}
